Whole data set: some 33,000 sequences, median “E-score (-0.5 to 0.5)” near -0.011, cut for the highest 2% near 0.28. The list shows a part of the results.
target: T1, Gcr1 (UniProt P07261); experiment: PBM E-score (8-mer binding enrichment) (E-score (-0.5 to 0.5)); higher = stronger / more preferred TF binding; most listed sequences are background and not binding sites; settings: protein concentration: 100 nM; construct: GST-full length
T1 sequence: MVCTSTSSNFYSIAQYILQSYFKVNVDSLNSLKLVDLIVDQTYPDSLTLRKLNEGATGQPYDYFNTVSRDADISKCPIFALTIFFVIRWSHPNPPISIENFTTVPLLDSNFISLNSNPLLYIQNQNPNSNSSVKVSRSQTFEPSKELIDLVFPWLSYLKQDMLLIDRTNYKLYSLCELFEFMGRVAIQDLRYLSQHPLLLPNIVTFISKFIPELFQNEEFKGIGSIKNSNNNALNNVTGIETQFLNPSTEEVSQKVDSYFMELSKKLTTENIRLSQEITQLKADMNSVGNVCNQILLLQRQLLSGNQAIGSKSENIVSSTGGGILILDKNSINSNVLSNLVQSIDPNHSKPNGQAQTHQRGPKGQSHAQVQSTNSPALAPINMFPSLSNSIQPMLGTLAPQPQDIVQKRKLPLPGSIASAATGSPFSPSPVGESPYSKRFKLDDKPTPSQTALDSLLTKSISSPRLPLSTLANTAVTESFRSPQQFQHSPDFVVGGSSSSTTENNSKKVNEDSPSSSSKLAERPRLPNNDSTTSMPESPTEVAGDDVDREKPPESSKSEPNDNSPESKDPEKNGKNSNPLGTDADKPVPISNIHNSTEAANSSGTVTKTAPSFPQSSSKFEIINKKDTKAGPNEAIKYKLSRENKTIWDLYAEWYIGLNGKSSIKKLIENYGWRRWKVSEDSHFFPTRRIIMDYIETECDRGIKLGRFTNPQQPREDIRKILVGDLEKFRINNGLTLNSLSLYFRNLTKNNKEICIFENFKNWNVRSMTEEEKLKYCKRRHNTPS
Outline: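 Full-length yeast transcription factors or their DNA-binding domains, GST-tagged and expressed with PURExpress, were applied at about 100-200 nM to universal all-10-mer Agilent arrays. These arrays had been made double-stranded by primer extension on fresh or once-stripped slides. Detection used fluorescent anti-GST, normalisation used masliner, and E-scores for ungapped eight-base words pooled with reverse complements came from the Universal PBM Analysis Suite.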

Sequence	PBM E-score
GTCTTCAC	-0.0782
GTAGTAAA	-0.0106
ACAACTAC	-0.0744
ATAGAGCC	-0.113
ACAGGAGG	0.147
GCGACGGA	-0.00405
AGATATAC	-0.115
AATGGAGG	-0.0955
CTGCGAAC	-0.199
AAGGACAG	-0.163
ATATCGTA	0.0394
GTTAGGTA	0.0805
GTGTTAAA	-0.0648
ATATTAGA	0.134
CCATGCCG	-0.2
AAAGACTC	-0.195
CCAAGGTA	-0.102
GGCAGGTA	-0.0896
AGAAACGC	-0.0117
ATGTCCGG	-0.119
AAAGGAGA	0.0351
GGAAGCGA	0.175
GCTTGACC	-0.0319
ACCGGCTA	-0.0906
AAGGATAA	0.0259

Sequence	PBM E-score
CCGGATAC	0.196
AATACATC	0.0446
GGCCATAA	0.0361
AATCTGGA	0.257
AGCGGCTC	0.119
AATACGAC	0.111
GTCGTTGA	-0.219
CCATTAGG	-0.0417
GGCGGCCC	0.032
AACATTCA	0.18
CGAACGAG	0.00212
CGAGAGAG	-0.16
CGACTCAG	-0.00629
AAATCCCT	-0.0536
CAAGATCA	0.0637
ACCCCACC	0.138
AGGATCAA	-0.0866
ATAATCTG	0.0736
ATACCCCA	0.0867
CTTTCTAA	0.157
ACTTACTA	-0.153
CAAAGGCG	-0.134
ATTGTGAA	0.0151
GAGTCTCA	-0.199
AGACATTA	-0.0316

Sequence	PBM E-score
TGGGGACA	0.00214
GGATACAA	-0.0278
CCTATGAA	0.129
CAGCCCCA	0.197
GCAAGGTA	-0.00536
CATTATTA	0.195
CACCGCGG	-0.0161
ACCTCACA	-0.188
ACCTCGAG	0.00455
CGGACCGA	-0.164
CCTTAAAC	0.162
CTTGTGTC	-0.00768
TCACAAAA	0.131
CCCGGGAC	0.21
CGTTGTCC	0.0549
ACACACCC	-0.0652
ACGTATCC	0.0516
TGGATAAA	0.11
CCCTGGAA	-0.204
AGCACGGA	-0.144
ATGCCAAG	0.106
ACGGGTTA	-0.0288
CCAACTCG	-0.0252
CCCGAGGC	-0.187
CTATGGCC	-0.0723

Sequence	PBM E-score
TCCATAGA	0.203
GTACACTA	-0.0677
CCTGCCGA	-0.143
AAGTTACA	0.0278
CTACACGC	0.0499
CTGTACTA	-0.0995
ACAAATGG	-0.118
AGCTATCC	-0.286
AGTCGCGA	-0.136
TAGTGTGA	-0.287
CCGCGTGC	-0.109
CATACCAC	-0.236
AGGTTCAT	-0.302
CGTAACTC	-0.158
AGAAGACC	-0.182
CACATGGC	0.0107
GATTAAAA	0.249
AGCATCAG	-0.256
ATAGTCCA	-0.0733
CCCCATAG	-0.0622
GTGGACAC	0.153
CATATTTC	0.133
CCGATTGC	-0.0335
CAACAATG	-0.0929
CGTTCCCA	-0.0578

Sequence	PBM E-score
ATCAATCC	0.141
CCGTCGAA	-0.0976
ACGAGGTA	-0.0585
AAATATTA	0.163
AGCTCAAG	-0.255
ACTTGTAT	0.207
GGGCAACC	0.0954
ACACTATG	-0.0627
GCGCGAGC	-0.152
CCACCGAG	-0.137
CTTGAAAG	-0.0544
CTATAGGC	0.114
TACCCAAA	0.2
CCGCAAAC	0.166
CTAAGTCC	-0.146
GCACGCGA	-0.15
CTGAGTTC	0.0373
GGGGTGAC	-0.122
CTCACTCC	-0.0538
AAAAGAAA	0.0118
GCAATCCC	-0.123
GAATGAAC	-0.0801
AGGTAACA	0.0528
ACAGTCGA	-0.191
AAGCAGCG	0.135

Sequence	PBM E-score
GCACTACC	-0.102
GAACCCGA	0.195
CAGAACGC	-0.0196
GCAAACAC	-0.104
CAAATCTA	0.109
CCCTCGGC	-0.244
GAGTCTCC	0.0372
CTGTTCTC	-0.11
CGACAAAG	0.154
AAGTTTTC	-0.0608
ATTCCTGC	0.048
CGCGAACC	0.0289
AAATGCAA	-0.0918
CGACGATA	0.00085
AACGTGGA	-0.11
AGACGAAG	0.335
GTCCTATA	-0.00162
CATGAAGA	-0.0181
AAGGGAGT	-0.24
GTGTCTAA	-0.0454
ACGACTTG	-0.08
AAAGTCCT	0.0622
ACGCAAAG	-0.14
ACAACAGC	0.0183
AGCCCACG	-0.116

Sequence	PBM E-score
CTGCTTAC	0.0339
ATAAGACA	0.049
CAACTTCA	-0.0643
TGGGAACA	-0.0255
AAAGGGCA	-0.206
AGTTCTGA	-0.102
ATTCCGGG	0.121
AGGTAATC	-0.103
CGCGTATC	0.101
CCATTACA	0.0797
CGGAGCCA	0.282
GAGGGCAC	-0.17
GCTTAGGA	-0.1
ATTATAAG	0.0645
CAATATCG	0.0234
ACGGCAAA	0.0638
AGCCCCCC	-0.0635
ACCCTTTA	-0.0902
GCATCTTA	0.257
AACCCCCC	-0.23
ATGCCCCC	-0.0687
CGCAGAGC	-0.291

From the supplement of paper PMC3334620
